Source: the RNAGym collection of RNA variant scans (doi:10.7554/elife.90254)
Read counts are not given, so values of variants with three or more changes are uncertain.

B1: LINE1-mini (parent)
chain: GGCAGAGCUCAACACAGCGUGGCAAAGUGGCUGUGGCUAGACUGCC

Variants of: B1
Test: self-cleavage, relative activity (ratio to wild type); higher = more cleavage; in vitro, sequencing; the parent is a self-cleaving ribozyme
In the case of GGCAGAGCCCAACACAGCGUGCCAAAGUGGCUGUGGCUAUACUGCC, the self-cleavage is reported as 0.01.
Variant GGCAGAGCUCAACACAGUGUGGCAAAGUGGAUGUGGCUAGACAUCC has a self-cleavage of 0.03.
For GGCAGAGCUCAAAAUAGCGUGGCAAUGUGGCUUUGGCUAGUCUGCC, the self-cleavage was 0.18.
For GGCAGAGCUCACUAUAGCGUGGCAAAGUGGCUGUGGCUAGACUGCC, the self-cleavage was 0.04.
UGCAGAGUUCAACACGGCUUGGCAAAGUGGAUGUGGCUAGACUGCC showed a self-cleavage of 0.03.
GGCAGAGCUCAACACCGCAUGGCAAAGUGGCUGAGGCUAGACUGCC showed a self-cleavage of 0.03.
Variant UGCAGAGCUCUACACAGCGUGGCAAAGUGGCUGUGGCGAGCCUGCC has a self-cleavage of 0.01.
GGCAGAGCUCAACCCAGCGUGGCAAAGUGGCUAUGGCUAGCCUGCC showed a self-cleavage of 0.02.
GGUAGAGCUCAACACAGCGAGGCAAAGUGGCUGUUGCUAGACUGUC showed a self-cleavage of 0.08.
GGCAGGGCUUAACACAGCUUGGCAAAGUGGCUGUGGCUAGACUGCC gave a self-cleavage of 0.01.
Work on GGCAGAGCUCAACACAGCGUGGCAAAGUGGAUGUCGCUAGACUGAC yielded a self-cleavage of 0.07.
With GGCACAGCUCUACACGGCGUGGCAAAGUGGCUGUGGCUAGACUGCC the self-cleavage was 0.02.
Work on GGCACAGCUCAACACCGCGUGGCAAAGUAGCUGUGGCUAGACUGCC yielded a self-cleavage of 0.03.
Variant GGCAGAGCUCAACACAGAGUGUCAAAGUAGCUGUGGCUAGACUGCC has a self-cleavage of 2.53.
For GGCAGAGCUCAACGCAGCGUGGCAAAGUGGAUGGGGCUAGACUGCC, the self-cleavage was 0.06.
For GGCAGAGCUCAAUUCAGCGUGGCAUAGUGGCUGUGGCUAGAUUGCC, the self-cleavage was 0.07.
GACAGGGGGCAACACAGCGUGGCAAAGUUCCUGUGGUCAGACUGCC gave a self-cleavage of 0.01.
Work on GGCAGAGCUCAACACAGCGUGGCAAAGGGGCUGUGGUUGGACCGCC yielded a self-cleavage of 0.03.
Variant GGCAGAGCUAAACCCAGCGUGGCAAAGUGGCUGUGGCUAGAAGGCC has a self-cleavage of 0.01.
With GGCAGAGCUCAACACAGCGUGGCGAAGCGGUUCUGGCUAGACUGCC the self-cleavage was 0.06.
Variant GGCAGAGCCCAAGACGGCUUGGUAAAGCGGCUGAGGCUAAACUGCC has a self-cleavage of 0.
GGCAGAGCUCAACACAGCGUGGCAAAGUGGCUUUGGCUAUAAGUCC showed a self-cleavage of 0.05.
AGCAGAGCUCAACUCAGCGUGGCUACGUGGCUAUGGCUAGACUGCC gave a self-cleavage of 0.05.
Work on GGCAGAGCUCAACACAGCGUGGAAAAAUGGCUGUGGCUCGACUGCC yielded a self-cleavage of 0.09.
GGCAGAGCUAAACACAGCGUGGCAAAGCCGCGGUGGCUAGACUGAC showed a self-cleavage of 0.02.
In the case of GGCAGAGCCCAAAACAGCGUGGCAGAGUGACUGUGGCGAGACUCCC, the self-cleavage is reported as 0.01.
Work on UGAAGAGCUCCACACAGCGUCCAAAAGUGGCGGUGGCUAGACUGCC yielded a self-cleavage of 0.03.
Variant GGCAGAGCUCAACACAGCGCGGCAAGGUGCCUGUGGCUCGACUGCC has a self-cleavage of 0.17.
With GGCAGCGCCCAACACAGCGUGACAUAUUGGCUGUCGCUAGACUGCC the self-cleavage was 0.06.
With GGCAGAGCUCAACGCAGCGUGGCAAAGUGGCUUUGGCUAGACUACC the self-cleavage was 0.03.
GGCAGAGCUCCACACAGCGUGGAAAAGUGGCUGUGGCUAGACAUCC showed a self-cleavage of 0.01.
For GUCAGAGCCCAACACAGCGUGUCAACGUGGCUGUGGCUAGACUGCC, the self-cleavage was 0.02.
GGCCUUGCUCAACACAGCGUGGCAAAGUGGCUGUGGCUAUACUGCC gave a self-cleavage of 0.04.
Variant GGCCCAGCUCAACACAGCGUGGCAUAGUGGCUGUGGCUAGACUGCC has a self-cleavage of 0.06.
Variant GGCAGAGAUAAACACAGCGUAGCAAAAUGGCUGUGGCUAGAUUGCC has a self-cleavage of 0.
For GGCCGAGCUUAACACAGAGUGGCAAAUUUGCCGUUGCUAGACUGCC, the self-cleavage was 0.04.
CGCAUAGCUCAUCACAGCGUGGUAAAGUGGCUGUGGCUAGUCUGUC gave a self-cleavage of 0.02.
GGGAGAGCUCAAACUAGCGUGGCAAAGUGGCCGUGGCUAGACUGCC gave a self-cleavage of 0.11.
GGCAGAGCGCAAAACAGAGUGGCAACGUGGCUGUGGUUAGAGUGCC gave a self-cleavage of 0.01.
With GGCAGAGCUCACCACAGCGUGGCAAAGUGGCUGUGGCUAUACUGGC the self-cleavage was 0.05.
With GGCAUAGCUCAACACAGCGUGGCAAAGUGACUCUGGCUAGUCUGCC the self-cleavage was 0.03.
In the case of GGCAGAGCUCAACACAGCGGGGCAAAGUGGCUGUAGGUAGACUGCC, the self-cleavage is reported as 0.01.
For GACAGAGCUCAACACAGCGUGUCAAAGUGGCUGUGGCAAGACUGCC, the self-cleavage was 0.22.
With GGCAGAGCUCAACACAGCGUGGCAUAGUCGCUCUGGCUAGACUACA the self-cleavage was 0.02.
Variant GGCACAGCUCAACACAGCGUGGCAAAGUGGCUGUGGCAAGUGUGCC has a self-cleavage of 0.08.
With GGCAGAGGUCAUCAAAGCGUGGCAAAGUGGCUGUGGCUAAACCGCC the self-cleavage was 0.02.
GGCAGACCUCAACAUAGCGUGGCAAAGUGGCUGUGUCUAGACCGCC showed a self-cleavage of 0.
With GGCACGGCUAAAGACAGCCUGGAAAAGUGCCUGUGGCUAGACUGCC the self-cleavage was 0.
Variant GGCAGAGUUCAACACAGCGUGGCUAAGUGGCUGUGGCGAGAUUGCC has a self-cleavage of 0.11.
With GGCAGACCUCAACACAACGUUGCAAAGUGGCUGUGGCUACACUGCC the self-cleavage was 0.01.
GGCAGAGCUCAACACCGCGUGGCAAAGUGGCUCUGGCUAUACUGCC showed a self-cleavage of 0.01.
With GGCAGAGCUCAAAAGGGCGUGGCAAAGUGGCUGUGACUAGACUGGC the self-cleavage was 0.02.
GGCAGAGCUCAACACAGCGUGGCAAAGUGGCUGUCGCUAGACACCC gave a self-cleavage of 0.03.
Variant UGCAGAGUUCAACACAGCUUGGCAAAGUUGCUGCGGCUAGACUGCC has a self-cleavage of 0.03.
With GGCAGAGUUCAACAGAGCGUGGCAAUGUGGCUGUGGCUAGACUGCC the self-cleavage was 0.02.
Variant GGCUGAACGCAACACUGCGUGGCAAAGUGGCUGUGGCUAGACUGCC has a self-cleavage of 0.03.
